From paper PMC3538594 (PLoS ONE, 2013)
One block for each compound: values may come before it.

Key:
[1] = target: T1, T. thermophilus complex II (Thermus thermophilus, UniProt Q5SIB8+Q5SIB9+Q5SIC0+Q5SIC1); test: DCPIP/1,4-NQ activity assay, statements across enzyme forms; type: biochemical; details: compared with DCPIP as the only electron acceptor, all forms of the protein
From the text: (§1) Kinetic experiments with NQNO support this interpretation.

[2] = target: T1, T. thermophilus complex II; details: in words
[3] = system: native complex II expression in T. thermophilus; test: expression of native complex II in the rcII-His8-SdhB production strain; type: cell-based; details: concentration up to 50 mM
From the text: On SDS-PAGE all four subunits of the rcII-His8-SdhB complex were detected, with a doublet for the band corresponding to SdhB (Fig. 1A, lane 4). While the upper band of this doublet represents the His-tagged SdhB subunit (Fig. 1B), the lower band migrates identically to the SdhB subunits of the native and wt-rcII complex II and therefore most likely corresponds to a native, non-tagged SdhB subunit. […] Therefore, due to the trimeric nature of the protein, the formation of the complexes containing mixed, His-tagged and untagged SdhB species is not surprising. As expected, due to enhanced expression of the His-tagged complex and the affinity method of purification, the His8-SdhB comprises a significant majority of the observed species in SdhB hybrid. […] Although complex II deletion strains of E. coli and B. subtilis exist, despite our best efforts, the trials to generate sdhCDAB deletion strain of T. thermophilus have been unsuccessful so far. The ability to generate the monomeric version of the enzyme, subsequent tag cleavage and in vitro trimerization of the complex II may seem to be a solution to overcome the problem of mosaic SdhB composition and for future generation of mutants. […]

[4] = target: T1, T. thermophilus complex II; test: DCPIP-only activity assay, statements across enzyme forms; type: biochemical; details: lag time proportional to p-BQ concentration
From the text: as §1

[5] = target: native complex II (succinate:quinone reductase) from Thermus thermophilus (Thermus thermophilus); test: native gel or EMSA; Blue Native PAGE of the purified complex II as described in ref. 14; markers beta-amylase (200 kDa), apoferritin monomer (443 kDa) and dimer (886 kDa); trimer of protomers
[6] = target: recombinant complex II from T. thermophilus HB8 with a His8 tag on the N-terminus of the SdhB subunit (Thermus thermophilus HB8); test: as above
[7] = target: wild type, non-tagged recombinant complex II from T. thermophilus HB8 (Thermus thermophilus HB8); test: as above

Compound: O=C1C=CC(=O)c2ccccc21 [1,4-NQ, 1,4-naphthoquinone]
- effect as direct electron acceptor on succinate dehydrogenase activity [1]: increased the succinate dehydrogenase activity by a factor of two

Compound: CCCCCCCCCc1cc(O)c2ccccc2[n+]1[O-] [NQNO]
- effect on the DCPIP/PMS activity [2]: negligible effect

Compound: O=C(O)/C=C/C(=O)O [fumarate]
- effect on expression of the native complex II [3]: did not inhibit the expression of the native complex II

Compound: O=C1C=CC(=O)C=C1 [p-BQ, p-benzoquinone]
- effect in the DCPIP assay [4]: induced a lag in the reduction of DCPIP

- stoichiometry N [5]: 3
Compound: native complex II (succinate:quinone reductase) from Thermus thermophilus

- stoichiometry N [6]: 3
Compound: recombinant complex II from T. thermophilus HB8 with a His8 tag on the N-terminus of the SdhB subunit

- stoichiometry N [7]: 3
Compound: wild type, non-tagged recombinant complex II from T. thermophilus HB8
